Test results taken from the supplement of paper PMC3334620.
Whole data set: some 33,000 sequences, median “E-score (-0.5 to 0.5)” near -0.032, cut for the highest 2% near 0.36. Some of the results follow.

Target: T1, Sko1 (UniProt Q02100)
T1 sequence: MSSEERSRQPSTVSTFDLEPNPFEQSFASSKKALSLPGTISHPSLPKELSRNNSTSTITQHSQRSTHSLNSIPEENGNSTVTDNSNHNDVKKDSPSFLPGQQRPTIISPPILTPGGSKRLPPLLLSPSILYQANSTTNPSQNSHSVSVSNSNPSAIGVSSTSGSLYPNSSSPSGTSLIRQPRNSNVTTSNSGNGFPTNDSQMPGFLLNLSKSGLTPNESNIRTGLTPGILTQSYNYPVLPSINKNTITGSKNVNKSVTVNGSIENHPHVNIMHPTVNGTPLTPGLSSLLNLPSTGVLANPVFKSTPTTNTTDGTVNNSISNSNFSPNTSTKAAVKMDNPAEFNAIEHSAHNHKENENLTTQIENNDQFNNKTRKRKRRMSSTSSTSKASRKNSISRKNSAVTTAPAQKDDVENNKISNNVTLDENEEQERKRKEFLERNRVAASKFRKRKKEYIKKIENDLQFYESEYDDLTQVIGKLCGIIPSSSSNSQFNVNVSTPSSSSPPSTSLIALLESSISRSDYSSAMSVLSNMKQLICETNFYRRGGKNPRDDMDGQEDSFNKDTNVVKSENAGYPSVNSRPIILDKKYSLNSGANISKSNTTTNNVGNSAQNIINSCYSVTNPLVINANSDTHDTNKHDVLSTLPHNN
Assay: PBM E-score (8-mer binding enrichment) (E-score (-0.5 to 0.5)); higher = stronger / more preferred TF binding; most listed sequences are background and not binding sites
Settings: protein concentration: 200 nM; construct: GST-full length
Description: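 Universal 'all 10-mer' protein binding microarrays (Agilent AMADID 015681) probed with GST-tagged S. cerevisiae TFs (full-length or DBD) made by in vitro transcription/translation (PURExpress), about 100-200 nM. Bound TF was detected with fluorescent anti-GST. Each ungapped 8-mer (which stands for itself and its reverse complement) is scored by the PBM enrichment score (E-score), a modified Wilcoxon-Mann-Whitney statistic from -0.5 to +0.5, computed with the Universal PBM Analysis Suite. Scale: above 0.35 generally sequence-specific binding.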

Sequence	PBM E-score
ATATATTG	0.0698
CAATCCGC	-0.118
CGAGAGAC	-0.288
CGTCTCAC	0.0535
AATGCAAG	0.137
CGTAGGTC	0.284
GCGAGTGA	0.00389
AACATCAA	0.234
ACTAAGAT	0.151
TGGTAAAA	0.198
ACTTCTCC	-0.216
ATAGAGGG	-0.102
ATACCTAT	0.142
CAAGCCTG	-0.0726
GCGTTCAC	0.0396
ATGTTGCC	-0.155
ACTACAGT	0.0523
TCATGTAA	0.26
AGCGGCCC	-0.394
AAATGCGT	0.3
ATTTGTAC	0.191
CATAGACA	0.149
GAGTCTGA	-0.238
CATTCCTC	-0.0246
GAAACCTA	-0.194

Sequence	PBM E-score
AAGATTAA	0.144
GACCCTTA	-0.106
AAGCTACA	-0.0145
ATGCTTAA	0.00768
CATCACGC	0.237
ATTAGGTC	0.207
AGCACTTA	-0.0248
TAGTACTA	0.0117
GTTGTTCA	0.0736
GAATTAAA	0.0159
ACCGCCGG	-0.364
CTACGTTA	0.406
GGTCTCAA	-0.182
ATTATTAG	0.0971
CCCAACAA	-0.00752
AGCATGCT	-0.0729
CGACACAG	-0.0787
CCTAAACC	-0.14
CTAGATCC	-0.244
GTCGTCAC	0.41
ACGGTGAA	0.0275
GCCTGTGA	-0.138
CAAACTTA	0.123
ATTTTGGG	-0.11
CACATACA	0.0747

Sequence	PBM E-score
CACCACGG	-0.313
AAGCTTAA	-0.0543
GCTCTGCA	-0.271
AACTACCA	0.0137
GGTCGTCA	0.38
CTAAACCC	-0.221
CCAGTTTC	-0.246
TTCTCAAA	0.0993
CACCCAGG	-0.314
TCCAAGAA	-0.0748
CCACGGAG	-0.025
AAGCTAAG	-0.154
CAGGGTCC	-0.285
ACGATGTA	0.226
CAGATTAC	0.186
CGATGATA	0.126
CATAGCTC	0.0909
CGAGCGTA	0.129
ACAGTGGA	-0.0428
AAAGATCG	0.0205
CGTCTCAG	0.0209
CTTAATAC	0.267
ACCTCTCC	-0.112
GAAGGGAA	-0.0887
AACTCGAG	-0.00786

Sequence	PBM E-score
GAATTTGA	0.0364
TAAGACTA	-0.0768
GAGAATCC	-0.0249
CGGAGAAC	-0.0372
CAGGGAAG	-0.212
TACGCTCA	0.176
GCGTCCAA	-0.016
GTGATAAA	0.224
CTTCAATA	0.197
TGGCGAAA	-0.0259
TAGCACAA	0.0507
GTACAGTA	0.0318
AACAGTGA	0.081
CAGAAAGG	-0.145
TTACGCAA	0.466
AGTCACAG	-0.0124
CCCCCGCA	-0.273
CTGTGTTC	-0.00553
AACGCATA	0.219
CAATACCC	-0.0336
TCCGAAGA	-0.111
CGATGGCA	-0.103
CGCAATAG	0.19
ACCGACGG	-0.181
AATTGTAA	0.0478

Sequence	PBM E-score
ACAGGGAA	-0.143
AGCCCAGC	-0.207
TAGCCAGA	-0.141
AGCTAATC	0.169
GTCCACGA	-0.131
AGAGTCTG	-0.319
ACGCTCGC	0.123
GGAGCTAC	-0.112
GTACTCGA	0.0478
CATATGAA	0.137
GAGATCTA	-0.0105
TGTTACAA	0.077
GCCCACCA	-0.287
CCCAAGCG	-0.251
AACTTGTA	0.0747
CTTTGGTA	-0.104
ATTAACAC	0.335
AGGAACGG	-0.233
CTTAAAGA	0.00637
CATAACAG	0.155
TAGACGAA	0.163
GAGTGTCA	0.113
AGAGTGCA	-0.147
AAGAACCC	-0.0238
ACCATAAA	-0.00095

Sequence	PBM E-score
CCCAATAC	0.0194
GGAGTGTA	-0.173
ATTTACCC	-0.0225
CAATCCCG	-0.0545
GAAGCACA	-0.204
ATACCGTG	-0.0765
ATTTCTAC	0.164
ACTACTTG	-0.0017
AACTTAAC	0.189
GCACGTGA	0.387
CCCCGGGG	-0.35
CATTAACG	0.132
AAGAATCA	-0.0357
ACCTGGGC	-0.321
GGTTGAAC	-0.156
CATTCAGA	-0.0259
ATCCGCTA	-0.0307
GCGTGTCC	-0.0297
ACACATGT	0.0725
CCTGATTC	-0.163
ATTAAGAC	0.0342
ATATCACG	0.309
CGCATAAA	0.135
GCACTCAA	-0.123
TGTACACA	0.22

Sequence	PBM E-score
ACCCCGGA	-0.165
AGCACCGA	0.0488
ATACTGGA	0.0132
AAAAGGCA	0.0227
AAAGTGCT	0.018
CAACCACA	0.128
AAAGGATT	-0.0186
CTGACAAA	0.109
GGTGTTGA	-0.137
AAGGCAAT	0.0439
ATAGCCTG	-0.251
AAGCCCAG	-0.214
ACATAGAC	0.074
GACTGCAA	-0.203
ACACATCC	-0.0658
CGCCCCGC	-0.137
AACGTACT	0.37
TCCAATAA	0.146
CTAGAGTC	-0.357
CGAGTGCG	0.0803
AGAGACTC	-0.126
CTAAAGCA	0.0664
